The IC50 comes from the fitted curve, where viability falls to half of the control; a limit (>, <) means that the fit lies beyond the doses tested. For AUC the same curve is integrated over the 256-fold range of doses and scaled to a fraction; values near 1 show little effect. For part of these data: Any top dose called inferred was calculated from the reported fits. For part of these data: Drugs with an entry number were screened twice under separate entries, and the two screens often disagree.
Key:
Assay in all cases: Viability of human cancer cell lines after 72 h of drug (GDSC screen)
[1] = compound: COC(=O)[C@H](CCSC)NC(=O)c1ccc(NC[C@@H](N)CS)cc1-c1ccccc1 [FTI-277]; settings: top dose 1.024 µM; top dose inferred
Experimental: (§1)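 Human cancer cell lines in 384-well plates, medium with 10% serum, drug for 72 h over a 256-fold dose range (nine 2-fold or five 4-fold steps up to the top dose). Adherent lines were fixed and stained with the nucleic acid dye Syto60, suspension lines read with resazurin; signal relative to control wells, capped at 0 and 100%. One two-parameter sigmoid per drug and line, fitted in a mixed model over all curves with the slope shared within a line.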

[2] = compound: C[C@]1(O)C[C@@H](c2nc(-c3ccc4ccc(-c5ccccc5)nc4c3)c3c(N)nccn32)C1 [OSI-906]; settings: top dose 2.56 µM; top dose inferred
Experimental: as §1

[3] = compound: c1ccc2c(CCNc3ccc(Nc4ccncc4)cc3)c[nH]c2c1 [JNJ-26854165]; settings: top dose 10 µM
Experimental: as §1

[4] = compound: Cc1sc2c(c1C)C(c1ccc(Cl)cc1)=N[C@@H](CC(=O)OC(C)(C)C)c1nnc(C)n1-2 [JQ1]
Experimental: as §1

[5] = compound: CC1(C)CNc2cc(NC(=O)c3cccnc3NCc3ccncc3)ccc21 [AMG-706]; settings: top dose 2 µM; top dose inferred
Experimental: as §1

[6] = compound: OCCCNc1cc(-c2ccnc(Nc3cccc(Cl)c3)n2)ccn1 [CGP-60474]; settings: top dose 0.256 µM; top dose inferred
Experimental: as §1

[7] = compound: CN1CCN(c2ccc([N+](=O)[O-])c3no[n+]([O-])c23)CC1 [NSC-207895]; settings: top dose 20 µM; top dose inferred
Experimental: as §1

[8] = compound: Cc1ccc(C(=O)N(CCCN)[C@@H](c2nc3cc(Cl)ccc3c(=O)n2Cc2ccccc2)C(C)C)cc1 [SB-715992]; settings: top dose 0.128 µM; top dose inferred
Experimental: as §1

[9] = compound: COCC[n+]1c2c(n(Cc3cnccn3)c1C)C(=O)c1ccccc1C2=O [YM155]; settings: top dose 5.12 µM
Experimental: as §1

[10] = compound: CC(=O)O[C@@]12CO[C@@H]1C[C@H](O)[C@@]1(C)C(=O)[C@H](O)C3=C(C)[C@@H](OC(=O)[C@H](O)[C@@H](NC(=O)OC(C)(C)C)c4ccccc4)C[C@@](O)([C@@H](OC(=O)c4ccccc4)[C@H]21)C3(C)C [Docetaxel]; settings: top dose 0.0125 µM
Experimental: as §1

[11] = compound: CCOc1nc(NC(=O)Cc2cc(OC)ccc2OC)cc(N)c1C#N [JNK Inhibitor VIII]; settings: top dose 10 µM; top dose inferred
Experimental: as §1

[12] = compound: CC1=C2C[C@H]3[C@@H](CC=C4C[C@@H](O)CC[C@@]43C)[C@@H]2CC[C@]12O[C@@H]1C[C@H](C)CN[C@H]1[C@H]2C [Cyclopamine]; settings: top dose 16 µM; top dose inferred
Experimental: as §1

[13] = compound: O=C(/C=C/c1cccc(S(=O)(=O)Nc2ccccc2)c1)NO [Belinostat]; settings: top dose 20 µM; top dose inferred
Experimental: as §1

[14] = compound: Cc1[nH]c(/C=C2\C(=O)Nc3ccc(S(=O)(=O)Cc4c(Cl)cccc4Cl)cc32)c(C)c1C(=O)N1CCC[C@@H]1CN1CCCC1 [PHA-665752]; settings: top dose 2 µM
Experimental: as §1

[15] = top dose 1 µM, screen: GDSC drug entry 1218, top dose inferred
[16] = top dose 2.56 µM, screen: GDSC drug entry 163

Cell Line	AUC [1]	IC50 [1]	AUC [2]	IC50 [2]	AUC [3]	IC50 [3]	AUC [4, 15]	IC50 [4, 15]	AUC [4, 16]	IC50 [4, 16]	AUC [5]	IC50 [5]	AUC [6]	IC50 [6]	AUC [7]	IC50 [7]	AUC [8]	IC50 [8]	AUC [9]	IC50 [9]	AUC [10]	IC50 [10]	AUC [11]	IC50 [11]	AUC [12]	IC50 [12]	AUC [13]	IC50 [13]	AUC [14]	IC50 [14]
A498 (kidney, adherent)	0.86	> 1.02 µM	0.924	> 2.56 µM	0.8	8 µM	0.969	> 1 µM	0.709	0.85 µM	0.977	> 2 µM	0.77	0.15 µM	0.976	> 20 µM	0.961	> 0.128 µM	0.786	3.54 µM	0.398	0.000358 µM	0.978	> 10 µM	0.973	> 16 µM	0.952	> 20 µM	0.857	> 2 µM
COLO-800 (melanoma, adherent)	0.988	> 1.02 µM	0.87	2.28 µM	0.801	4.73 µM	0.986	> 1 µM	0.981	> 2.56 µM	0.983	> 2 µM	0.937	> 0.256 µM	0.915	> 20 µM	0.59	0.014 µM	0.592	0.568 µM	0.45	0.000572 µM	0.969	> 10 µM	0.985	> 16 µM	0.834	12.4 µM	0.97	> 2 µM
COR-L279 (small cell lung carcinoma, suspension)	0.989	> 1.02 µM	0.986	> 2.56 µM	0.979	> 10 µM	0.911	> 1 µM	0.801	1.09 µM	0.991	> 2 µM	0.83	0.137 µM	0.941	> 20 µM	0.776	0.0456 µM	0.263	0.0736 µM	0.959	> 0.0125 µM	0.973	> 10 µM	0.984	> 16 µM	0.41	0.731 µM	0.99	> 2 µM
D-502MG (glioma, adherent)	0.974	> 1.02 µM	0.97	> 2.56 µM	0.887	> 10 µM	0.835	> 1 µM	0.918	> 2.56 µM	0.954	> 2 µM	0.952	> 0.256 µM	0.965	> 20 µM	0.944	> 0.128 µM	0.254	0.0416 µM	0.71	0.0043 µM	0.958	> 10 µM	0.92	> 16 µM	0.534	1.62 µM	0.957	> 2 µM
